# Measurements published in PMC4336329 (PLoS ONE, 2015).
# Hit rate of the full screen: of about 310,000 compounds, about 14,000 (4.5%) showed an effect of 50% or more. Effects have a minus sign here. Some of the results follow.
# Molecular target: human ether-à-go-go-related gene (hERG) potassium channel (human, UniProt Q12809)
# Experiment: primary screen, population patch clamp on CHO cells stably expressing hERG
# 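Further: peak tail current of the secondary pulse compared with the same well before compound.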
# Chain of human ether-à-go-go-related gene (hERG) potassium channel (Q12809 whole entry, looked up): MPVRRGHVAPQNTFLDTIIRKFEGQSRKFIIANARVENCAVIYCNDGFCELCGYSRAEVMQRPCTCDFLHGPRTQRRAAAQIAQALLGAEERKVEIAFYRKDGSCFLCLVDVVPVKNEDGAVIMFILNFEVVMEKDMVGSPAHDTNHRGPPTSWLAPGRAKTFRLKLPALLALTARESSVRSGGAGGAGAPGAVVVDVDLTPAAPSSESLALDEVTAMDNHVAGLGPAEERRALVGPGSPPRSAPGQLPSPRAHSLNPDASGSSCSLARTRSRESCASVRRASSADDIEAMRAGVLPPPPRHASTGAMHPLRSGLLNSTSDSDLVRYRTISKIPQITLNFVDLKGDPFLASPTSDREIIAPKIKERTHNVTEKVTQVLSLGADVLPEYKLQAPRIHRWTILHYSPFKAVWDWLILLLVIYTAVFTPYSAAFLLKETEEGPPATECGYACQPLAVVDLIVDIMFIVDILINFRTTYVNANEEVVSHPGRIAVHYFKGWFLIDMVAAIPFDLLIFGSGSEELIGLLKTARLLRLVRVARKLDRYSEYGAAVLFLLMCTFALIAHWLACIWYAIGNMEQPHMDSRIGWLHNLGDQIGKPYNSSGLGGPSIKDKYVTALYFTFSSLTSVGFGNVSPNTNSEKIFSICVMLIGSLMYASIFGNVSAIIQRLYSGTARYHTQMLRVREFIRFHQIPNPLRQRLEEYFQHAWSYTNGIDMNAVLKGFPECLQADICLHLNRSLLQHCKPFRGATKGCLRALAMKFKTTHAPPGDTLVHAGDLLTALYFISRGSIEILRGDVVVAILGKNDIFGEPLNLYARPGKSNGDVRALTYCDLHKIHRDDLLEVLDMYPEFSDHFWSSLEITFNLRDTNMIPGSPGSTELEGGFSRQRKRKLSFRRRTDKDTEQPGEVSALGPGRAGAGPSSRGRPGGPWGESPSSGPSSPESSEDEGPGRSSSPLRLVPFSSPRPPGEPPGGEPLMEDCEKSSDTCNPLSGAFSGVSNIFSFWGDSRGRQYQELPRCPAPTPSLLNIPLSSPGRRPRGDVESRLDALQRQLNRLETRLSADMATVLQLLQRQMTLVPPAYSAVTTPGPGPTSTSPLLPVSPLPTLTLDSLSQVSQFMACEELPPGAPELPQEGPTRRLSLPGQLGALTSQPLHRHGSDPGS
row,Compound,"hERG current change (%, negative = inhibition) at 10uM [%]"
1,COc1ccc([N+](=O)[O-])cc1NC(=O)C1CCCN1S(=O)(=O)c1cccs1 (centres unmarked),-18.1
2,Cc1ccc(-n2nc3c(c2NC(=O)C(C)C)CS(=O)(=O)C3)c(C)c1,17.2
3,Cl.O=C(O)CCN1CCOCC1,19.8
4,Cc1ccc(S(=O)(=O)CCC(=O)OCC(=O)Nc2cc(S(=O)(=O)N3CCOCC3)ccc2C)cc1,-30.2
5,CCCCN(CC)S(=O)(=O)c1ccccc1,-18.3
6,O=S(=O)(N1CCCCC1)N1CCNCC1,6.92
7,COc1ccc(OC)c(CN2CCN(C(=O)c3cc4ccccc4cc3O)CC2)c1,-7.39
8,CCOC(=O)c1c2ccc(OCC(=O)N/N=C/c3ccc(C)cc3)cc2n2ccccc12,-2.23
9,O=C(NCCc1cccnc1)c1cc(COc2ccc(F)cc2F)on1,-20
10,COc1ccc(C(=O)NCCS(=O)(=O)NCCc2ccccc2)cc1,-13.2
11,COc1ccc2[nH]c(C(=O)O)c(NS(=O)(=O)c3ccc(OC)c(OC)c3)c2c1,-1.22
12,CCN(CC)CCNC(=O)c1ccccc1C(=O)c1ncc[nH]1,-4.65
13,Cc1c(/C(O)=C2/C(=O)C(=O)N(CCN3CCOCC3)C2c2cccs2)cnn1-c1ccccc1 (centres unmarked),13.6
14,CC(Cc1c[nH]c2ccccc12)NC(N)=O (centres unmarked),-11.7
15,COc1cccc(OCC(=O)Nc2ccccc2-c2ccccc2)c1,9.57
16,Cc1ccc(-c2csc3n[nH]c(=S)n23)cc1,8.85
17,CCOc1cc(/C=C2\SC(=O)N(c3ccc(O)cc3)C2=O)ccc1O,3.28
18,O=C1C(c2ccc(F)cc2)N(C2CCCCC2)C(=O)CN1C1CCCC1 (centres unmarked),-34.1
19,COc1cccc(Nc2ncnc3c2cnn3C)c1,9.2

row,Compound,"hERG current change (%, negative = inhibition) at 10uM [%]"
1,C/C=C/C=C/C(=O)N1CC[C@]23c4ccccc4N[C@H]4N(C)c5cccc6c5[C@]42CCN([C@H]6C2OC2(C)C)[C@H]13 (some centres unmarked),-8.01
2,O=C(COc1ccc(Cl)cc1)NCCc1ccccn1,32.5
3,Cn1c(COc2ccccc2)nnc1SCC(=O)Nc1ccc2c(c1)OCO2,-12.5
4,Cn1c(Cc2cccs2)nnc1SCc1nc2ccccc2[nH]1,6.36
5,O=C(Nc1ccc2c(c1)OCO2)c1ccc2c(c1)S(=O)(=O)c1ccccc1C2=O,12.5
6,COc1ccc(S(=O)(=O)N2CCCCC2)cc1C(=O)N1CCCC1,15.4
7,CC(CN(C)Cc1ccccc1)OC(=O)C1COc2ccccc2O1.Cl (centres unmarked),17.4
8,CCOC(=O)c1nc(N2CCN(C(=O)OCC)CC2)c2c3c(sc2n1)CCCC3,-49.2
9,CCCS(=O)(=O)N1CCN(S(=O)(=O)c2ccccc2[N+](=O)[O-])CC1,1.43
10,Cc1ccc(S(=O)(=O)N(C)c2ccc(C(=O)NCC(c3cccs3)N3CCOCC3)cc2)cc1 (centres unmarked),20.9
11,CC(C)OC(=O)c1ccc(NC(=O)c2cccc(-n3cnnn3)c2)cc1,14.8
12,O=C(O)c1cccc(N/N=C/c2cccc3ccccc23)c1,14.4
13,COc1cc(C(=O)NCCc2nc3ccccc3n2C)cc(OC)c1OC,-10.8
14,Cc1ccc([N+](=O)[O-])cc1NC(=S)NC(=O)CC(C)(C)C,9.57
15,O=C(Nc1ccc(Cl)cc1C(=O)Nc1ccccn1)c1ccco1,-39.9
16,Cc1ccccc1NC(=O)C1CCCN1S(=O)(=O)c1ccc2c(c1)n(C)c(=O)c(=O)n2C (centres unmarked),-8.85
17,COC(=O)Cn1c(C)nc(=O)c(-c2ccccc2)c1C,14.9
18,[N-]=[N+]=CC(=O)c1ccnc(C(=O)C=[N+]=[N-])c1,-10.2
19,O=C(CN(Cc1ccco1)C(=O)CNS(=O)(=O)c1ccc(Cl)cc1)NC1CCCCC1,-1.19

row,Compound,"hERG current change (%, negative = inhibition) at 10uM [%]"
1,CC(C)c1c(C(=O)N/N=C/c2c[nH]c3ccccc23)nnn1-c1nonc1N,-6.99
2,O=S(=O)(c1cccc(NC(=S)NCc2ccco2)c1)N1CCOCC1,13.2
3,CCN(CC)CCOC(=O)C1(c2ccc(OC)c(OC)c2)CCCC1.Cl,-16.9
4,COc1ccc2[nH]cc(C(=O)CN3CCN(C(=O)c4ccco4)CC3)c2c1,-21.5
5,Oc1ccc(-c2nccc(-c3ccc(Cl)cc3Cl)n2)cc1,1.43
6,Cc1ccc(-c2nn(-c3ccccc3)cc2C(=O)NCCCN2CCCC2=O)cc1,-17.1
7,CC1=N/C(=C\c2ccc([N+](=O)[O-])cc2)C(=O)N1c1ccc(Br)c(C)c1,8.76
8,CC1COc2c(N3CCN(C)CC3)c(F)cc3c(=O)c(C(=O)O)cn1c23 (centres unmarked),18.2
9,CCc1ccc(Nc2n[n+](-c3ccccc3)c(-c3c(Cl)cccc3Cl)s2)cc1.[Cl-],-27.5
10,COc1ccc(NC2SC(=O)N(CC(=O)O)C2=O)cc1 (centres unmarked),12.9
11,CCCCn1c(SCC(N)=O)nc2sc3c(c2c1=O)CCC3,2.85
12,CC(C)(C)C(=O)Nc1ccnn1C1CCN(C(=O)c2ccc(Cl)cc2F)CC1,6.16
13,Cc1ccc(Nc2nnc(-c3ccc(N4CCOCC4)c([N+](=O)[O-])c3)c3ccccc23)cc1,-39.1
14,CC(Sc1nnc(-c2ccco2)n1C)C(=O)NC1CCCC1 (centres unmarked),21.7
15,CC(O)[C@H]1CN=C(N)N1CCCCC1CCCCC1 (some centres unmarked),14.8
16,c1cc(-c2nnc3n2CCCCC3)ccn1,-0.982
17,CC/C(CC(=O)C(F)(F)F)=N\NC(=O)/C(C#N)=C/N(C)C,22.1
18,COc1cccc(/C=N/NC(=O)c2cnn(-c3ccccc3)c2N)c1,-10.6
